Experimental data: patent US20210355219A1

Molecular target: C00703 huCD40::Fc (human)
Assay: BLI (Octet); huCD40::Fc immobilized, masked protein at 100 nM in conditioned media; nm shift relative to unmasked control anti-Alb-anti-CD40

C00703 huCD40::Fc (human), sequence (chain, as listed by the source limits assumed): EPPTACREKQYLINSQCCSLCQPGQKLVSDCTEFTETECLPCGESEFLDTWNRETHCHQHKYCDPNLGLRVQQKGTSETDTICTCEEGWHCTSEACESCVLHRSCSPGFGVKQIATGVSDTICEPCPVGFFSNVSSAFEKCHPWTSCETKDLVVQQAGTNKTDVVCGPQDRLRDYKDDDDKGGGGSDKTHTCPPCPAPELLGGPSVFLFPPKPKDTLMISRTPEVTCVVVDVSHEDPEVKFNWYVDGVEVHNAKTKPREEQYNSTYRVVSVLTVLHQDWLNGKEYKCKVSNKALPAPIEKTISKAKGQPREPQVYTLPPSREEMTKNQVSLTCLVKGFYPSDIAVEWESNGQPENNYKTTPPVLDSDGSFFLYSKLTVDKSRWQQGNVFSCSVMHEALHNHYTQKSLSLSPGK

B1: anti-Alb-CD-2-C06 (mask070) masked anti-CD40 protein with anti-CD40 heavy chain SEQ ID No. 73 (bispecific antibody, human IgG1, kappa)
heavy: [about 100 residues not given here]DQPLGYCTNGVCSYFDYWGQGTLVTVSS[human IgG1 constant region not given here]
light: EVQLVESGGGLVQPGNSLTLSCAASGFTFSKFGMSWVRQARAASAGQGLEWVSSISGSGRDTLYADSVKGRFTISRDNAKTTLYLQMNSLRPEDTAVYYCTIGGSLSVSSQGTLVTVSSGGGGSGGGSGGGGSGGGSDIQMTQSPSSVSASVGDRVTITCRASQGIYSWLAWYQQKPGKAPNLLIYTASTLQSGVPSRFSGSGSGTDFTLTISSLQPEDFATYYCQQANIFPLTFGGGTKVEIKRTVAAPSVFIFPPSDEQLKSGTASVVCLLNNFYPREAKVQWKVDNALQSGNSQESVTEQDSKDSTYSLSSTLTLSKADYEKHKVYACEVTHQGLSSPVTKSFNRGEC
Q: For B1, which Binding response (% of control) is on record?
A: Its Binding response (% of control) is 7 % of control.
